# Experimental data: PubChem BioAssay AID588342 (National Center for Advancing Translational Sciences (NCATS), 2011)
# The campaign covered roughly 360,000 compounds. About 25,000 (6.9%) were called active. Inconclusive means that the source gave no clear call. Such entries were picked first, then a sample of the others. Calls come from the whole dose curve; as a rule, active = well fitted inhibition curve with a large enough effect; inconclusive = small, poorly fitted or top-dose-only effect; inactive = flat fitted curve, though single readings scatter. Potencies of inconclusive entries are doubtful fits and often do not repeat.
# Molecular target: Luciferin 4-monooxygenase (Photinus pyralis) (UniProt P08659)
# Chain of UniProt P08659 (P08659 whole entry, looked up): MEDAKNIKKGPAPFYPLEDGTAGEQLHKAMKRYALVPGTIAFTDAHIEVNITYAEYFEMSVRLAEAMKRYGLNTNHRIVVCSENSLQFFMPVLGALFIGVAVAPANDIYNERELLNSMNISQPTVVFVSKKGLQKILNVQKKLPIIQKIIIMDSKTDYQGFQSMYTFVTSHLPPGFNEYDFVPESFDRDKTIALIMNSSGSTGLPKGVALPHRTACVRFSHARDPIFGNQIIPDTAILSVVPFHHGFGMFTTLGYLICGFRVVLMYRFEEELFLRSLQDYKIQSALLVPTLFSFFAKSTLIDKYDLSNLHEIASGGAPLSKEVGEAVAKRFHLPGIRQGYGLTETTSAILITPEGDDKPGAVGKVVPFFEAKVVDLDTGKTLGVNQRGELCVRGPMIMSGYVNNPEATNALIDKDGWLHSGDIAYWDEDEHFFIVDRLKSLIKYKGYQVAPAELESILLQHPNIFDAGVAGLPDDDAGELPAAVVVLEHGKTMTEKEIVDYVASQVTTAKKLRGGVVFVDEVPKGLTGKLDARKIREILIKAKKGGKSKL
# Experiment: qHTS profiling assay for firefly luciferase inhibitor/activator using purifed enzyme and Km concentrations of substrates (counterscreen for miR-21 project); note: nearly all actives have a fitted effect of over 55% in size;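 for activity change, negative = inhibition: plate controls were vehicle for no effect and reference inhibitor for full effect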
# Details: purified FLuc, luminescence inhibition; activity change, negative = inhibition: at 57.5 µM (top of the series)
# Outline: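 Purified P. pyralis luciferase (10nM final) with 10uM D-luciferin and 10uM ATP (Km levels) in 50mM Tris acetate pH 7.5, 10mM Mg acetate, 0.01% Tween-20, 0.05% BSA; qHTS 6-point titration, ~60 µM downward; luminescence read.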
# Potency is the fitted concentration of half-maximal effect; tags give direction and shape of the fitted curve.
Compound,Potency,"activity change, negative = inhibition"
Cc1ccc(C(=O)N/C(=C/c2cccs2)C(=O)NCC2CCCO2)cc1 (stereo unspecified),"inconclusive: 23.9 µM [inhibitor, partial curve, poor fit]",–
CCN1C(=O)/C(=C2\C=Cc3ccccc3N2CC)SC1=S,"inconclusive: 16.9 µM [inhibitor, partial curve]",–
c1cnc2ccc3ncccc3c2c1,"inconclusive: 26.9 µM [inhibitor, single point]",–
COC(=O)c1ccc2c(=O)n(CCCCCC(=O)NCc3ccccn3)c(=O)[nH]c2c1,"inconclusive: 19 µM [inhibitor, single point]",–
CCOC(=O)c1sc(NC(=O)c2cc(-c3cccc(O)c3)on2)c(C(=O)OCC)c1C,"inconclusive: 21.3 µM [inhibitor, partial curve, poor fit]",–
COc1ccc(-c2cc(C(=O)N(C)CC(=O)Nc3ccccc3Cl)c3ccccc3n2)cc1OC,"inconclusive: 23.9 µM [inhibitor, single point]",–
CC(=O)Nc1nonc1-c1nnc(SCC(=O)Nc2cc(C)ccc2C)n1-c1ccccc1,–,inactive: 5.44%
Cc1nc2c(sc3nc4c(cc32)COC(C)(C)C4)c(=O)n1Cc1ccccc1,active: 23.9 µM,–
Cc1ccc(NC(=O)COC(=O)c2cc(Cl)ccc2[N+](=O)[O-])cc1,"inconclusive: 23.9 µM [inhibitor, single point]",–
CC1CCc2sc(C(=O)NNC(=O)c3ccncc3)cc2C1 (stereo unspecified),"inconclusive: 21.3 µM [inhibitor, single point]",–
Cc1ccc(OCc2cc(C(=O)N3CCCCCCC3)no2)cc1C,"inconclusive: 16.9 µM [inhibitor, partial curve]",–
Cc1ccc(-c2cc(-c3ccc(Cl)cc3)c(C#N)c(N)n2)o1,"inconclusive: 10.7 µM [inhibitor, partial curve, poor fit]",–
COc1ccc(/C=C/C2=CC(C)(C)NC(=S)N2)c(OC)c1,"inconclusive: 21.3 µM [inhibitor, partial curve, poor fit]",–
COc1cccc(CNc2ncnc3onc(-c4ccc(F)cc4)c23)c1,–,inactive: -5.76%
CC(C)(C)c1ccc(C(=O)NCC(=O)OCC(=O)c2ccc3c(c2)-c2ccccc2C3)cc1,"inconclusive: 8.49 µM [inhibitor, partial curve]",–
O=C(NCCc1ccccc1)c1ccccc1NC(=O)C1CCCCC1C(=O)O (stereo unspecified),"inconclusive: 23.9 µM [inhibitor, single point]",–
CC(=O)c1cccc(NC(=O)c2oc(C)nc2C)c1,–,inactive: -0.951%
CC(=O)N1CCN(c2ccc(NS(=O)(=O)c3ccc(C)cc3)cc2)CC1,–,inactive: -1.7%
CCOc1ccc(Nc2nc(-c3sc(N)nc3C)cs2)cc1,active: 15.1 µM,–
O=C(Nc1nsc(-c2ccccc2)n1)c1ccc(F)cc1,active: 9.53 µM,–
O=C(Nc1ccc(Cl)cc1)C1C2CCCCC21 (stereo unspecified),active: 4.78 µM,–
Cc1ccc(C(=O)Nc2ccc(OCc3ccccc3)cc2)s1,"inconclusive: 4.78 µM [inhibitor, partial curve, poor fit]",–
Cc1ccccc1C(=O)Oc1ccc(Sc2ccc(O)cc2)cc1,"inconclusive: 23.9 µM [inhibitor, single point]",–
Cc1ccccc1CC(=O)Nc1ccc(C(=O)N2CCCC2)cc1,"inconclusive: 26.9 µM [inhibitor, single point]",–

Compound,Potency,"activity change, negative = inhibition"
COc1cccc(N2C(=O)C(CC(=O)Nc3cccc(F)c3)N(C(C)C)C2=O)c1 (stereo unspecified),–,inactive: -1.07%
Cc1cccc(CC(=O)NC2CC(=O)N(c3cccc(F)c3)C2)c1 (stereo unspecified),–,inactive: 0.582%
O=C(Nc1ccc([N+](=O)[O-])cc1)OCCc1ccccn1,"inconclusive: 10.7 µM [inhibitor, partial curve]",–
CCCCC(=O)Nc1ccc2c(c1)nc(CCNC(=O)c1ccco1)n2C,–,inactive: -12%
O=C(NC(Cc1ccccc1)c1nc2ccccc2[nH]1)C1CC(=O)N(c2ccc3c(c2)OCCO3)C1 (stereo unspecified),"inconclusive: 30.1 µM [inhibitor, partial curve, poor fit]",–
Cc1cc(C)cc(OCC(=O)Nc2cccc(-c3nc4ncccc4o3)c2)c1,"inconclusive: 23.9 µM [inhibitor, partial curve, poor fit]",–
COC(=O)[C@H](C)NC(=O)c1cc2c(cn1)[nH]c1ccccc12,"inconclusive: 15.1 µM [inhibitor, partial curve]",–
Cc1ccc(NC(=O)CNC(=O)c2sc3ccccc3c2Cl)nc1,"inconclusive: 42.6 µM [inhibitor, partial curve, poor fit]",–
Cn1c(=O)[nH]c(=O)c2c1nc(N1CCOCC1)n2CCN1CCOCC1,–,inactive: 4.97%
O=C(c1ccco1)N1CCN(c2ncnc3sc4c(c23)CCC4)CC1,–,inactive: -10.4%
COc1ccc(OC)c(C2CC(=O)N(c3cccc(C)c3)C3=C2C(=O)OC3)c1 (stereo unspecified),–,inactive: -4.25%
CN1CCSc2ccc(C(=O)Nc3cc(F)ccc3F)cc21,active: 2.13 µM,–
O=C(Nc1ccc(-c2nc3ccccc3o2)cc1)c1cc(-n2cnnc2)ccc1Cl,"inconclusive: 23.9 µM [inhibitor, single point]",–
COc1cc(/C=N/Nc2nc3ccccc3[nH]2)cc(OC)c1O,active: 4.78 µM,–
O=C(NC(=S)NCCc1ccccc1)C1CCCCC1,"inconclusive: 37.9 µM [inhibitor, partial curve, poor fit]",–
COc1ccc(C(=O)Nc2ccc(Cl)c(S(=O)(=O)Nc3ccccc3OC)c2)cc1,"inconclusive: 37.9 µM [inhibitor, partial curve, poor fit]",–
COc1ccc(Cl)cc1NC(=O)CCn1c(=O)c2cccn2c2ccccc21,"inconclusive: 42.6 µM [inhibitor, partial curve, poor fit]",–
CCOC(=O)c1c(NC(=O)CN2CCN(C(=O)c3ccco3)CC2)sc(C(N)=O)c1C,–,inactive: 2.14%
CN(C)c1ccc(CNC(=O)C2CCCN(S(=O)(=O)c3ccc4c(c3)CCCC(=O)N4)C2)cc1 (stereo unspecified),–,inactive: -7.69%
O=c1c2ccc([N+](=O)[O-])cc2ncn1CCOc1cccc(Br)c1,–,inactive: -5.89%
CC(=O)Nc1cc(-c2ccc(Cl)cc2)[nH]n1,"inconclusive: 19 µM [inhibitor, partial curve]",–
CSc1ccc(CNC(=O)Cc2ccc(NC(=O)C3=C(C)OCCS3)cc2)cc1,active: 1.35 µM,–
COC(=O)c1ccc2[nH]c3c(c2c1)CC(C)CC3 (stereo unspecified),active: 12 µM,–
COC(=O)CCC(=O)COc1ccc(OC)cc1C#N,"inconclusive: 16.9 µM [inhibitor, partial curve]",–

Compound,Potency,"activity change, negative = inhibition"
COc1ccc(C(=O)Nc2ccccc2C(=O)NCC2CCCO2)cc1 (stereo unspecified),"inconclusive: 21.3 µM [inhibitor, partial curve]",–
COc1ccccc1NC(=O)CN(c1cc(C)cc(C)c1)S(=O)(=O)c1c(C)[nH]c(=O)[nH]c1=O,"inconclusive: 37.9 µM [inhibitor, partial curve, poor fit]",–
Cc1cc(NC(=O)/C=C/c2cccc(Cl)c2)n(-c2nc3ccccc3[nH]2)n1,"inconclusive: 12 µM [inhibitor, partial curve]",–
O=C1NC(=S)S/C1=C\c1ccc(SCc2ccco2)o1,"inconclusive: 26.9 µM [inhibitor, single point]",–
NC(=O)c1nc[nH]c1C(=O)Nc1cccc(C(F)(F)F)c1,–,inactive: -17.2%
Cc1cc(NC(=O)c2ccco2)sc1C,active: 5.36 µM,–
O=C(CSc1nc(-c2ccccc2)nc2ccc(F)cc12)Nc1cccc(C(=O)O)c1,"inconclusive: 26.9 µM [inhibitor, single point]",–
COc1ccc(NC(=O)Nc2cccs2)cc1OC,active: 21.3 µM,–
COC(=O)c1ccc(NC(=S)NCc2ccco2)cc1,"inconclusive: 37.9 µM [inhibitor, partial curve, poor fit]",–
Cc1ccnc(SCc2cc(=O)c(OC(=O)c3cccs3)co2)n1,"inconclusive: 26.9 µM [inhibitor, partial curve, poor fit]",–
O=C(NNC1CC(=O)N(c2ccccc2)C1=O)c1ccc(COc2ccccc2Cl)o1 (stereo unspecified),active: 16.9 µM,–
O=C(COC(=O)C1CC1)Nc1nc(-c2ccc(F)c(F)c2)cs1,–,inactive: -14.4%
Cc1cc2oc(=O)cc(CN(C)Cc3cccc(F)c3)c2cc1C,"inconclusive: 37.9 µM [inhibitor, single point]",–
CSc1ccccc1OCc1cc(C(=O)N2CCN3CCCC3C2)no1 (stereo unspecified),"inconclusive: 33.8 µM [inhibitor, partial curve, poor fit]",–
O=C(N/N=C/c1cccnc1)C12CC3CC(CC(C3)C1)C2,"inconclusive: 23.9 µM [inhibitor, partial curve, poor fit]",–
Cc1nc(-c2cccc(NC(=O)C(C)Oc3ccccc3)c2)cs1 (stereo unspecified),"inconclusive: 30.1 µM [inhibitor, single point]",–
Cc1ccc(Nc2c(-c3ccc(N4CCOCC4)cc3)nc3cccc(C)n23)cc1,"inconclusive: 8.49 µM [inhibitor, partial curve]",–
COc1cc2c(cc1OC)-c1cc(Nc3ccc4c(c3)OCCO4)nc(=O)n1CC2,active: 15.1 µM,–
Cc1c(N=C2C=CC(=O)c3ccccc32)c(=O)n(-c2ccccc2)n1C,"inconclusive: 19 µM [inhibitor, partial curve]",–
COc1ccccc1-n1cnnc1SCc1csc(-c2ccccc2)n1,–,inactive: -5.82%
Cc1ccc(C(=O)CSc2ncnc3ccccc23)o1,active: 13.5 µM,–
CCc1nnc(NC(=O)CSc2nc(SC)ns2)s1,"inconclusive: 15.1 µM [inhibitor, partial curve, poor fit]",–
CCOC(=O)N1CCC(N2Cc3cccc(C(=O)Nc4ccc(CC)cc4)c3C2=O)CC1,active: 12 µM,–
